The values below come from article PMC2887905 (BMC Research Notes, 2010).

For this test, the target named is Recombinant HIV-1 gp120 (LAV, CXCR4 monotropic, identical to NL4-3 gp120, glycosylated) (HIV-1 (LAV; identical to NL4-3 gp120), glycosylated). The test is described as follows: SPR; LAV gp120 immobilised by NHS/EDC coupling on a CM5 sensor chip (3500-5000 RU), Biacore 1000, HBS-EP buffer, flow rate 5 μl/min for 6 min; proteins tested at 1, 5, 10, 25 and 50 μg/ml. The note with it: both partners purified.

B1: mouse serum albumin, normal, non-modified (natural protein)
chain: not shown
Regarding B1, the response units is under 5 RU.
